Source: the supplement of paper PMC4604168 (melanoma cell lines)
Some of the results follow. Many values rest on one well or one pass, so single values are uncertain.

Assays:
Experiment in all cases: cell count relative to DMSO control; melanoma cells; higher = more viable cells
Settings in all cases: library dose: low library concentration; 72 h
WM115 = system: WM115
WM1716 = system: WM1716
WM1745 = system: WM1745
WM3526 = system: WM3526
WM3619 = system: WM3619
WM451Lu = system: WM451Lu
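Note: cell number obtained by counting DAPI-stained nuclei in high-throughput microscope images with image analysis software, screen run in 1,536-well plates.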

Row | SMILES | cell count (WM115) | cell count (WM1716) | cell count (WM1745) | cell count (WM3526) | cell count (WM3619) | cell count (WM451Lu)
1 | NC(=O)Nc1cc(-c2cccc(F)c2)sc1C(=O)N[C@H]1CCCNC1 + C[C@@H]1CCN(C(=O)CC#N)C[C@@H]1N(C)c1ncnc2[nH]ccc12 [CP690550] (first compound 0.02 µM, partner dose 1 µM) | 92.6% | 83.6% | 95.2% | 84.9% | 69.6% | 92.3%
2 | OCCn1cc(-c2cnc3nnn(Cc4ccc5ncccc5c4)c3n2)cn1 + O=C1NC(=O)/C(=C/c2ccc(-c3ccc(F)cc3O)o2)S1 [AS252424] (first compound 1 µM, partner dose 1 µM) | 98.1% | 89.9% | 106% | 88% | 69.8% | 91.9%
3 | CO[C@@H]1[C@H](N(C)C(=O)c2ccccc2)C[C@H]2O[C@]1(C)n1c3ccccc3c3c4c(c5c6ccccc6n2c5c31)C(=O)NC4 [Midostaurin] + O=C(O)c1ccc(-c2c[nH]c3ncc(-c4ccccc4)cc23)cc1C1CCCC1 [GSK650394] (first compound 0.08 µM, partner dose 0.16 µM) | 89.1% | 84.8% | 93% | 83% | 99.8% | 87.6%
4 | CO[C@@H]1[C@H](N(C)C(=O)c2ccccc2)C[C@H]2O[C@]1(C)n1c3ccccc3c3c4c(c5c6ccccc6n2c5c31)C(=O)NC4 [Midostaurin] + CC(C)(C)c1cnc(CSc2cnc(NC(=O)C3CCNCC3)s2)o1 [SNS-032] (first compound 0.08 µM, partner dose 0.01 µM) | 80.5% | 80% | 82.1% | 107% | 93.9% | 88.8%
5 | NCC(=O)Nc1ccc(-n2nc(C(F)(F)F)cc2-c2ccc3c(ccc4ccccc43)c2)cc1 + O=c1cc(-c2cccc3c2Sc2ccccc2S3)oc(N2CCOCC2)c1 [KU55933] (first compound 1 µM, partner dose 1 µM) | 106% | 97.4% | 111% | 42.2% | 111% | 61.8%
6 | CO[C@@H]1[C@H](N(C)C(=O)c2ccccc2)C[C@H]2O[C@]1(C)n1c3ccccc3c3c4c(c5c6ccccc6n2c5c31)C(=O)NC4 [Midostaurin] + O=C(Nc1ccccc1)c1cc([N+](=O)[O-])ccc1Cl [GW9662] (first compound 0.08 µM, partner dose 2 µM) | 98% | 92.7% | 86.3% | 117% | 95.9% | 94.2%
7 | OCCn1cc(-c2cnc3nnn(Cc4ccc5ncccc5c4)c3n2)cn1 + CCCCCCCCCCCC1=C(O)C(=O)C=C(O)C1=O [Embelin] (first compound 1 µM, partner dose 1.2 µM) | 94.4% | 109% | 101% | 83.1% | 125% | 105%
8 | CO[C@@H]1[C@H](N(C)C(=O)c2ccccc2)C[C@H]2O[C@]1(C)n1c3ccccc3c3c4c(c5c6ccccc6n2c5c31)C(=O)NC4 [Midostaurin] + CCCCCCCCCCCC1=C(O)C(=O)C=C(O)C1=O [Embelin] (first compound 0.08 µM, partner dose 1.2 µM) | 101% | 96.8% | 77% | 109% | 125% | 99.4%
9 | C[C@]1(c2nc3c(C(N)=O)cccc3[nH]2)CCCN1 [Veliparib] + N#Cc1c(O)c2c(-c3ccc(-c4ccccc4O)cc3)csc2[nH]c1=O [A769662] (first compound 1.4 µM, partner dose 2 µM) | 82.8% | 80.9% | 93% | 116% | 138% | 93.4%
10 | CO[C@@H]1[C@H](N(C)C(=O)c2ccccc2)C[C@H]2O[C@]1(C)n1c3ccccc3c3c4c(c5c6ccccc6n2c5c31)C(=O)NC4 [Midostaurin] + c1cc(-c2cnn3cc(-c4ccc(OCCN5CCCCC5)cc4)cnc23)ccn1 [Dorsomorphin] (first compound 0.08 µM, partner dose 0.4 µM) | 105% | 97.2% | 83.2% | 112% | 105% | 137%
11 | C=CCn1c(=O)c2cnc(Nc3ccc(N4CCN(C)CC4)cc3)nc2n1-c1cccc(C(C)(C)O)n1 + COc1cc2ncnc(Nc3ccc(Oc4ccccc4)cc3)c2cc1OC [SrcI1] (first compound 0.02 µM, partner dose 2 µM) | 77% | 92.7% | 84.3% | 101% | 47.7% | 152%
12 | OCCn1cc(-c2cnc3nnn(Cc4ccc5ncccc5c4)c3n2)cn1 + C[C@@H]1CCN(C(=O)CC#N)C[C@@H]1N(C)c1ncnc2[nH]ccc12 [CP690550] (first compound 1 µM, partner dose 1 µM) | 96.4% | 99% | 103% | 132% | 102% | 113%
13 | CN(C)S(=O)(=O)c1ccc2c(c1)/C(=C/c1cc3c([nH]1)CCCC3)C(=O)N2 + CC(C)CCN1c2nc(Nc3cc(F)c(O)c(F)c3)ncc2N(C)C(=O)C1C [BID1870] (first compound 0.4 µM, partner dose 0.2 µM) | 70.4% | 114% | 93.7% | 101% | 119% | 101%
14 | C=CCn1c(=O)c2cnc(Nc3ccc(N4CCN(C)CC4)cc3)nc2n1-c1cccc(C(C)(C)O)n1 + C[C@@H]1CCN(C(=O)CC#N)C[C@@H]1N(C)c1ncnc2[nH]ccc12 [CP690550] (first compound 0.02 µM, partner dose 1 µM) | 90.6% | 77.4% | 80% | 101% | 94.2% | 89.9%
15 | NCC(=O)Nc1ccc(-n2nc(C(F)(F)F)cc2-c2ccc3c(ccc4ccccc43)c2)cc1 + Oc1nc(-c2ccc(C(F)(F)F)cc2)nc2c1CSCC2 [XAV939] (first compound 1 µM, partner dose 2 µM) | 97.8% | 64.1% | 103% | 63.3% | 86.1% | 47.3%
16 | Cc1nc(Nc2ncc(C(=O)Nc3c(C)cccc3Cl)s2)cc(N2CCN(CCO)CC2)n1 [dasatanib] + Oc1nc(-c2ccc(C(F)(F)F)cc2)nc2c1CSCC2 [XAV939] (first compound 0.004 µM, partner dose 2 µM) | 57.4% | 43.2% | 43.9% | 100% | 80.6% | 97.1%
17 | C=CCn1c(=O)c2cnc(Nc3ccc(N4CCN(C)CC4)cc3)nc2n1-c1cccc(C(C)(C)O)n1 + CCCCCCCCCCCC1=C(O)C(=O)C=C(O)C1=O [Embelin] (first compound 0.02 µM, partner dose 1.2 µM) | 77.4% | 85.6% | 72.3% | 98.9% | 82% | 111%
18 | OCCn1cc(-c2cnc3nnn(Cc4ccc5ncccc5c4)c3n2)cn1 + Oc1cc(-c2nc(-c3ccccc3)[nH]c2-c2ccncc2)ccc1Cl [L779450] (first compound 1 µM, partner dose 0.2 µM) | 98.4% | 93.7% | 93.2% | 88.9% | 73.2% | 111%
19 | C[C@]1(c2nc3c(C(N)=O)cccc3[nH]2)CCCN1 [Veliparib] + COc1ccc2c(c1)CCC1C2CCC2(C)C(NCCCCCCN3C(=O)C=CC3=O)CCC12 [U73122] (first compound 1.4 µM, partner dose 0.4 µM) | 90.1% | 75.2% | 78.6% | 104% | 93% | 96.6%
20 | OCCn1cc(-c2cnc3nnn(Cc4ccc5ncccc5c4)c3n2)cn1 + O=c1cc(-c2cccc3c2Sc2ccccc2S3)oc(N2CCOCC2)c1 [KU55933] (first compound 1 µM, partner dose 1 µM) | 105% | 104% | 93% | 88.4% | 92.8% | 101%
21 | Cc1nc(Nc2ncc(C(=O)Nc3c(C)cccc3Cl)s2)cc(N2CCN(CCO)CC2)n1 [dasatanib] + CCN(CC)CCCCNc1ncc2cc(-c3cc(OC)cc(OC)c3)c(NC(=O)NC(C)(C)C)nc2n1 [PD173074] (first compound 0.004 µM, partner dose 0.1 µM) | 67.4% | 80.8% | 59.7% | 110% | 106% | 91.9%
22 | CO[C@@H]1[C@H](N(C)C(=O)c2ccccc2)C[C@H]2O[C@]1(C)n1c3ccccc3c3c4c(c5c6ccccc6n2c5c31)C(=O)NC4 [Midostaurin] + COc1ccc2c(c1)CCC1C2CCC2(C)C(NCCCCCCN3C(=O)C=CC3=O)CCC12 [U73122] (first compound 0.08 µM, partner dose 0.4 µM) | 91.2% | 77.6% | 89.9% | 83.2% | 102% | 70.9%
23 | NCC(=O)Nc1ccc(-n2nc(C(F)(F)F)cc2-c2ccc3c(ccc4ccccc43)c2)cc1 + c1cc(-c2cnn3cc(-c4ccc(OCCN5CCCCC5)cc4)cnc23)ccn1 [Dorsomorphin] (first compound 1 µM, partner dose 0.4 µM) | 84.9% | 96.2% | 86.2% | 58.3% | 118% | 67%
24 | OCCn1cc(-c2cnc3nnn(Cc4ccc5ncccc5c4)c3n2)cn1 + COc1cc(N2CCC(N3CCN(C)CC3)CC2)ccc1Nc1ncc(Cl)c(Nc2ccccc2S(=O)(=O)C(C)C)n1 [NVP-TAE684] (first compound 1 µM, partner dose 0.08 µM) | 91% | 82.6% | 87.7% | 76.2% | 91.9% | 54.6%
25 | C[C@]1(c2nc3c(C(N)=O)cccc3[nH]2)CCCN1 [Veliparib] + Oc1cc(-c2nc(-c3ccccc3)[nH]c2-c2ccncc2)ccc1Cl [L779450] (first compound 1.4 µM, partner dose 0.2 µM) | 69.7% | 112% | 81.1% | 76.5% | 70.7% | 97.9%
26 | OCCn1cc(-c2cnc3nnn(Cc4ccc5ncccc5c4)c3n2)cn1 + COc1ccc2c(c1)CCC1C2CCC2(C)C(NCCCCCCN3C(=O)C=CC3=O)CCC12 [U73122] (first compound 1 µM, partner dose 0.4 µM) | 98.8% | 89% | 96.1% | 107% | 113% | 86.1%
